Each structure is given as a SMILES string. In all, about 110,000 compounds were measured (“z-score”: median about -0.1, highest 2% from about 2 on). The list shows a part of the results. Active and inactive are the calls of the source.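 The calls were made as follows: active = z-score in the third read window above 3 or below -3; inactive = the rest.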

Data on 108 compounds can be found in PubChem BioAssay AID488969 (Vanderbilt High Throughput Screening Facility, 2010).

The target in the experiment is Metabotropic glutamate receptor 8 (Rattus norvegicus) (UniProt P70579). The experiment can be described thus: mGluR8 Gi/Go-coupled signaling modulation – cell-based, rat, thallium flux, HTS, primary screen (AID 488969). The conditions noted are these: HEK293 rat mGluR8, GIRK (G protein-gated inwardly rectifying potassium channel) thallium flux, FluoZin2; at 10 µM; stronger effect = higher value; submaximal glutamate (EC20) added with thallium.
Chain of UniProt P70579 (P70579 whole entry, looked up): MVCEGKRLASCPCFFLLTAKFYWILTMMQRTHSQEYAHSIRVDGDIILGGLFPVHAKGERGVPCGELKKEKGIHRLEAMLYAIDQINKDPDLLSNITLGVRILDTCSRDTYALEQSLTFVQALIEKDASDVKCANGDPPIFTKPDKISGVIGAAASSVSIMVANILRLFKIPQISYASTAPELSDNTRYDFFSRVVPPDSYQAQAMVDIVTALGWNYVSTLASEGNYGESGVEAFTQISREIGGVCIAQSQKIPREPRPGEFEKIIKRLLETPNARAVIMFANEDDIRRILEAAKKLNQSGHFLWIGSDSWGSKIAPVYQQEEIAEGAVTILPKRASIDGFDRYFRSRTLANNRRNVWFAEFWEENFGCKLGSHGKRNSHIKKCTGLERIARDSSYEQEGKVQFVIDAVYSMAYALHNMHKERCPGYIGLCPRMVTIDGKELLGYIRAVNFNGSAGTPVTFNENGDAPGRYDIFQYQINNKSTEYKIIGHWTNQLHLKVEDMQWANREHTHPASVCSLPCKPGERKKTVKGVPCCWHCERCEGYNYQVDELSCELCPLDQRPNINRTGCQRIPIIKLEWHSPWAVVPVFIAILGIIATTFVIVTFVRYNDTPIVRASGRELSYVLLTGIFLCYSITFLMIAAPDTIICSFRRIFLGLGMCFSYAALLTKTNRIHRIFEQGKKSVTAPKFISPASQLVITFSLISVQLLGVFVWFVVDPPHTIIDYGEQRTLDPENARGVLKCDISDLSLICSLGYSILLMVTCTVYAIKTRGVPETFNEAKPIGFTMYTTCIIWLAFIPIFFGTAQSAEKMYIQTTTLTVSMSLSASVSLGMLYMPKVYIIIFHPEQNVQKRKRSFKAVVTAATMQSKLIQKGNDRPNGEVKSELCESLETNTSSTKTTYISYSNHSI
On to `O=C(Nn1cnnc1)c1cc([N+](=O)[O-])cc([N+](=O)[O-])c1`, for which the z-score is -0.286.

On to `CCN(C(=O)CSc1nnc(Nc2ccccc2C)s1)C1CCS(=O)(=O)C1` (stereo not drawn), for which the z-score is -0.257.

Consider `N#CC1=C(N)Oc2n[nH]c(CSc3ccccc3)c2C12C(=O)Nc1ccccc12` (stereo not drawn), for which the z-score was -0.485. Compound `COc1ccc([N+](=O)[O-])cc1NCc1ccccc1C` showed a z-score of -0.176. As for `O=S(=O)(NCc1cn2ccsc2n1)c1ccc2c(c1)OCCO2`, the figure is -0.0846; as for `CC1(C)NC(=O)N(CCOCCOc2c(Cl)cc(Cl)cc2Cl)C1=O`, -0.413; as for `Cc1cccc(-n2c(C)cc(/C=N/NC(=O)c3ccc(CN4CCOCC4)cc3)c2C)c1`, 0.529.

Regarding `COC(=O)CSc1nnc(CNC(=O)Cc2ccccc2)n1-c1ccccc1OC`, the z-score was -0.273. The compound `C/C(=N\Nc1nc2ccccc2[nH]1)c1ccc(C)o1` yielded a z-score of -0.539. The value for `CCOC(=O)c1ccc(NS(=O)(=O)c2ccc3c(c2)CCCN3C(C)=O)cc1` was 0.0549; that for `C=CCNC(=O)c1ccc(N(C)S(=O)(=O)c2ccc(OC)cc2)cc1` was 0.0482; that for `COCCN1C(=O)c2ccccc2C(C(=O)NCC2CCCO2)C1c1c[nH]c2ccccc12` (stereo not drawn) was -0.121. As for `Cc1n[nH]c(=O)n1-c1cccc(C(F)(F)F)c1`, the figure is -0.651; as for `Cc1ccc(/C(O)=C2/C(=O)C(=O)N(CCN3CCOCC3)C2c2cccs2)cc1` (stereo not drawn), -0.157.

Consider `Cc1ccccc1C(=O)NC(=S)NCCc1ccccc1`, for which the z-score was active: 6.68. As for `CCN1CCN(CC(O)COc2ccc(Cl)cc2)CC1` (stereo not drawn), the figure is -0.424; as for `Cc1cc2c(N=NC(=O)CCc3ccccc3)c(O)[nH]c2cc1Br`, 0.474; as for `Cc1cccc(N/C=C/C(=O)c2cccs2)c1C`, -0.185. As for `Cc1cc(C)n(-c2ccc(C(=O)Nc3nnc(C4CC4)s3)cc2)n1`, the figure is 0.129; as for `Cc1cc(=O)[nH]c(SCC(=O)Nc2ccc(C(=O)O)cc2)n1`, 0.46.

On to `O=C(C/C=N/OCc1ccccc1F)c1cnc(-c2ccc(Cl)cc2)s1`, for which the z-score was -0.147.

`COc1cccc(C(=O)NNC(=O)Cc2ccc([N+](=O)[O-])cc2)c1`: the z-score is -0.123.

In turn, `O=C(NC(NC(=O)c1ccccc1)c1ccccc1)c1ccccc1` registered a z-score of -0.164.

Compound `O=C(CCn1nnc2ccccc2c1=O)N[C@H](C(=O)O)c1ccccc1` displayed a z-score of -1.23.

In turn, `COC(=O)C1=C(C(=O)c2ccc(C)cc2)C(c2ccccc2)n2nnnc2N1` (stereo not drawn) had a z-score of 0.991. The value for `CCOc1ccc(NC(=O)CCC(=O)c2ccc(-c3ccccc3)cc2)cc1` was -1.21; that for `O=C(Nc1ccc(NC(=O)C23CC4CC(CC(C4)C2)C3)cc1)c1cc(F)c(F)cc1Cl` was -0.315. Compound `CCOC(=O)C(CCCOc1ccccc1C)C(=O)OCC` showed a z-score of 0.000651. As for `Cc1ccc(NC(=O)CSc2nc3c(c(=O)[nH]2)CCC3)cc1C`, the figure is -0.406; as for `COC(=O)CN(c1ccccc1)S(=O)(=O)c1ccc(F)cc1`, -0.167; as for `CCOC(=O)/C(C(N)=NC(C)C)=C(\O)c1ccccc1`, 0.0345. With `Cc1cc2oc(C(=O)N(Cc3ccccc3)C3CCS(=O)(=O)C3)cc(=O)c2cc1Cl` (stereo not drawn), the z-score is -0.141.

Compound `O=C(NCc1ccc(N2CCCC2=O)cc1)Nc1cccc(Cl)c1` showed a z-score of 0.0224. As for `O=C(c1cccs1)n1nc(-c2ccccc2)nc1NCc1ccc(F)cc1`, the figure is 0.00719. Consider `Cc1ccc2nc(C)c(Cl)c(=O)n2c1`, for which the z-score was 0.00417. With `COc1ccc(C(=O)N(CC2CCCO2)C(C(=O)NCCC(C)C)c2ccc(C)cc2)cc1OC` (stereo not drawn), the z-score was -0.0543. `O=C(CNCC1CCCO1)Nc1ccccc1-n1cccc1` (stereo not drawn) yielded a z-score of 0.0521. As for `COC(=O)c1cc(OC)c(OC)cc1NC(=O)c1ccc(C)cc1`, the figure is -0.296; as for `CC1(c2ccco2)NC(=O)NC1=O` (stereo not drawn), 0.122. As for `Cc1ccc(NC(=S)NCc2ccccc2Cl)c(C)c1`, the figure is -0.0423; as for `O=C(COc1cccnc1[N+](=O)[O-])N1CCN(S(=O)(=O)c2ccc3ccccc3c2)CC1`, -0.206; as for `CCOC(=O)NC1(C(F)(F)F)NC(=O)N(C2CCCCC2)C1=O` (stereo not drawn), 2.9.

In the case of `O=C(C1=C(O)C(=O)N(Cc2ccco2)C1c1ccccc1)c1cccs1` (stereo not drawn), the z-score was -0.817.

With `OCCCn1c(-c2ccccc2)nc(=S)c2c1CCCC2`, the z-score was -0.0555. As for `COc1ccc(Cn2c(O)c(C=Nc3ccc(O)cc3)c3ccccc3c2=O)cc1`, the figure is 0.122; as for `COC(=O)CNS(=O)(=O)c1ccc(Cc2ccc(S(=O)(=O)NCC(=O)OC)cc2)cc1`, -0.0451; as for `O=C(O)CNC(=O)CC12CC3CC(CC(C3)C1)C2`, -0.191. Take `Cc1cc(C)cc(N2CN=c3s/c(=C\c4ccco4)c(=O)n3C2)c1`: the z-score is -0.0387. Turning to `Cc1ccc(NC(=O)CN(C)C(=O)CCOc2ccccc2C)cc1`, the z-score stood at 1.66. `COCCn1nc2cc(C(=O)NCc3cc(C(F)(F)F)cc(C(F)(F)F)c3)ccc2c1OC` displayed a z-score of -0.159.

`CCCN(CCC)c1nc(N)nc(-c2cc(Cl)ccc2OC)n1` displayed a z-score of -0.195. As for `CCC1(CC)C(=O)N(C)C(=O)NC1=Nc1ccc(OC)cc1`, the figure is 0.156. In turn, `CC1(C)C(=O)C2(C(=O)NCc3ccccc3)CCC1C2` (stereo not drawn) displayed a z-score of -0.176.

As to `COc1ccc(OC)c(NC(=O)COC(=O)c2c3c(nc4ccccc24)CCCC3)c1`, the z-score stood at 0.0716. Compound `O=C1Nc2ccccc2C1(O)Cc1ccncc1` (stereo not drawn) showed a z-score of -0.322. `COc1ccc(NC(=O)c2cccc(S(=O)(=O)N(C)c3ccccc3)c2)cn1`: the z-score is -0.426. As for `CCOc1ccc(C(C(=O)NC2CCCCC2)N(C(=O)Cc2cccs2)c2ccc(-n3cnnn3)c(OC)c2)cc1` (stereo not drawn), the z-score is -0.304. Take `CN1CCN(S(=O)(=O)c2ccc3c(c2)OCCO3)CC1`: the z-score was -0.129. `COCCCn1cc(C(=O)c2cc(OC)ccc2OCC(=O)Nc2cc(C)on2)cc(C#N)c1=O` had a z-score of -0.0248. `O=C(c1ccc([N+](=O)[O-])cc1)N(Cc1ccc(Br)cc1)N1C(=O)CCCC1=O` showed a z-score of -1.21.

The compound `C=C(C)Cn1c(=O)c(NC(=O)c2ccccc2)c2n(c1=S)CCC2` had a z-score of -0.467.

In turn, `COc1ccc(CCCC(=O)Nc2ccc(F)cc2)cc1` registered a z-score of -1.57. As for `O=C(O)C1CCCCC1C(=O)NCCCn1ccnc1` (stereo not drawn), the figure is -0.0282. As for `N#Cc1cc(-c2ccccc2)nn1-c1ccccc1`, the z-score is -0.202. Take `CCOC(=O)C1CCN(C(=O)CCCCn2c(=O)[nH]c3ccccc3c2=O)CC1`: the z-score was -0.985. The value for `CC(=O)N=C(N)Sc1nc2ccccc2[nH]1` was -0.0311.

In turn, `CCC1Cc2c(nc3c4c(nc(N5CCOCC5)c(C#N)c24)NC(C)=N3)O1` (stereo not drawn) yielded a z-score of -0.387. On to `COc1ccc(NC(=O)Nc2ncn(Cc3cccc(C(F)(F)F)c3)n2)cc1OC`, for which the z-score was 0.0572. In turn, `C=CCOc1nc2c(c(=O)n(C)c(=O)n2C)n1C` showed a z-score of -0.13. As for `Cc1ccc(S(=O)(=O)N[C@H](C(=O)N2CCC3(O)CCCCC3C2)c2ccccc2)cc1` (stereo partly drawn), the figure is 0.0721; as for `Cc1ccc(-n2c(O)c(/C=N/Nc3ccc(S(=O)(=O)N4CCOCC4)cc3[N+](=O)[O-])c3ccccc3c2=O)c(C)c1`, -0.182; as for `CC1(C)CNC(=O)c2sc(NC(=O)CN3CCOCC3)nc2C1`, -0.297. As for `CCOCCCNc1nc2c([nH]1)c(=O)n(C)c(=O)n2C`, the figure is 0.00722. As for `CCCc1ccc(OCC(O)CN2CCN(c3ccccc3)CC2)cc1` (stereo not drawn), the figure is -0.0136; as for `C=CCn1c(SCC(=O)Nc2ccc3c(c2)OCO3)nnc1-c1ccccc1O`, -0.86; as for `Oc1oc(-c2ccccc2)nc1/C=N/c1nccs1`, 1.54.

The compound `COc1ccc(-n2c(=O)c3c4c(sc3n3c(C)nnc23)CCCC4)cc1` returned a z-score of -0.147.

With `O=S(=O)(Nn1cnnc1)c1ccccc1`, the z-score is -0.313.

`CN(CC(=O)N1CCN(c2ccccc2F)CC1)S(=O)(=O)c1cnc[nH]1` came in with a z-score of -0.124. The value for `COc1ccc(-c2nnc(NC(=O)C3CCCO3)s2)cc1` (stereo not drawn) was -0.0181; that for `Nc1ccc(-c2ccc(N)cc2C(F)(F)F)c(C(F)(F)F)c1` was -1.22. The value for `O=C(c1ccco1)N1CCN(C(=O)N2c3ccccc3Sc3ccccc32)CC1` was -0.17; that for `CCc1ccc(NC(=O)CSC2=C(C#N)C(c3ccc4c(c3)OCO4)CC(=O)N2)cc1` (stereo not drawn) was 0.13. Regarding `COCc1nnc(NC(=O)CCC2CCCCC2)s1`, the z-score was determined as 0.558. With `O=C(NNC(=O)C1CCCN(c2ncccn2)C1)c1ccc(F)cc1` (stereo not drawn), the z-score came to 0.22. `O=C(O)CCCC(=O)Nc1nc(-c2ccc(F)cc2)cs1` showed a z-score of -0.5. As for `CCOC(=O)C1CCC2(CC1)C(C#N)=C(N)Oc1n[nH]c(C)c12` (stereo not drawn), the figure is 0.0849; as for `Cc1ccc(Sc2cc(Cl)nc(N)n2)cc1`, -0.159; as for `S=c1[nH]nc(Cc2c[nH]c3ccccc23)o1`, 0.241. As for `O=C(c1cccc(F)c1)N1CCN(C(=O)c2cc3ncc(Br)cn3n2)CC1`, the figure is -0.249. The value for `Cc1ccc(CN(Cc2ccco2)S(=O)(=O)c2ccc(S(=O)(=O)NCC3CCCO3)cc2)cc1` (stereo not drawn) was -0.00067. With `Cc1c(C=O)c2ccccn2c1C(=O)c1ccncc1`, the z-score was -0.188. The value for `CC(C)CNC(=O)c1c2c(nc3ccccc13)-c1ccccc1CC2` was -0.265. In turn, `Cc1ccc(NC(NC(=O)c2ccccc2[N+](=O)[O-])C(Cl)(Cl)Cl)cc1` (stereo not drawn) gave a z-score of -0.274.

The compound `Cc1ccc(SCc2nc(-c3ccccn3)no2)cc1` showed a z-score of -0.318.

Consider `CCCS(=O)(=O)N1CCCC(C(=O)N2CCN(C(=O)OCC)CC2)C1` (stereo not drawn), for which the z-score was -0.0863. As for `O=C(Nc1cccc2ccccc12)C1CCN(C(=O)NCc2ccccc2)CC1`, the figure is 0.124; as for `CCCC(=O)O[C@@H]1C[C@@H](C)N(C(=O)c2ccccc2)c2ccc(C)cc21`, -0.411; as for `COc1c(C)cccc1C(=O)Nc1ccc(CN2CCOCC2)cc1`, -0.359. In turn, `CCc1ccc(OCC(=O)Nc2ccc(S(=O)(=O)N3CCCC3)cc2)c(Br)c1` registered a z-score of -0.0349. Compound `Cc1ccc(S(=O)(=O)c2nc(NC3CCS(=O)(=O)C3)sc2Cl)cc1` (stereo not drawn) came in with a z-score of -0.0674.

As for `O=C1/C(=C/c2cccs2)N=C(c2cccs2)N1Nc1ccccc1`, the z-score is -0.339. Regarding `CCCCNCC(=O)Nc1ccc(NC(=O)CNCCCC)cc1`, the z-score is -0.169.

`CCOC(=O)c1cc(-c2ccc(OC(F)F)cc2)nc2nc(SC)[nH]c(=O)c12` had a z-score of -0.208. For the compound `CCOC(=O)c1c(C)[nH]c(C(=O)OCC(=O)Nc2cc(C)c(Cl)cc2OC)c1C`, the z-score is -0.365.

As for `CCOC(=O)C1=C(C)NC2=C(C(=O)CC(C)(C)C2)C1c1ccc2c(c1)CCCN2C` (stereo not drawn), the z-score was -0.347. `O=C(NC(NC1CCS(=O)(=O)C1)C(=O)c1cccs1)c1ccccc1` (stereo not drawn) had a z-score of -0.231. As for `S=C(Nc1ccc(Br)cc1)N1CCN(C2CCCCC2)CC1`, the figure is -0.217.
